From PubChem BioAssay AID1466 (National Center for Advancing Translational Sciences (NCATS), 2008)
Screen size: about 200,000 compounds; about 10 (0.005%) were called active. The shares of active, inactive and inconclusive entries below differ from those in the screen. The call rests on the fitted dose curve; in most records, active means well fitted inhibition curve with a large enough effect; inconclusive means small, poorly fitted or top-dose-only effect, or effect the other way, or another doubt; inactive means no such curve, though single readings can be large or run the other way. Potencies beside an inconclusive call are fits to weak or partial responses and may not hold up.

target: Lysosomal alpha-glucosidase (Homo sapiens) (UniProt P10253); experiment: qHTS Assay for Inhibitors of Human alpha-Glucosidase as a Potential Chaperone Treatment of Pompe Disease; conditions: purified human GAA, 4-MU-alpha-glucoside fluorescence; activity change, negative = inhibition: at 76.9 µM (top of the series) unless noted;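 on activity change, negative = inhibition: plate controls were uninhibited enzyme wells for no effect and no-enzyme background for full effect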
How it was run: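 Read-out is 4-methylumbelliferone fluorescence (Ex 365/Em 440 nm) after NaOH/glycine stop at pH 10. Enzyme 4 nM, substrate 400 uM, pH 5.0 citrate buffer, 20 min room temperature; AC50 from Hill-equation concentration-response.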
Potency means the concentration at half of the fitted maximal effect; tags describe the fitted curve by direction and shape.

Potency, inconclusive:
CCCCN(CCCNC(=O)c1ccc2nc(N3CCOCC3)sc2c1)Cc1ccccc1 39.8 µM [inhibitor, single point], COc1ccc(N(CC(=O)N/N=C/c2cc3ccc(OC)cc3nc2Cl)S(=O)(=O)c2ccccc2)cc1 7.08 µM [activator, single point], Cc1cccc(-n2nnnc2SCC(=O)c2cc(C)n(Cc3ccco3)c2C)c1 22.4 µM [inhibitor, partial curve, poor fit], CCC(=O)NC(Nc1cccc(C)n1)(C(F)(F)F)C(F)(F)F 50.1 µM [activator, single point], Cc1ccc(C(OCCN(C)C)c2cccc(C(F)(F)F)c2)cc1 (stereo unspecified) 6.31 µM [inhibitor, single point], O=C(Nc1ccccc1CC[N+](=O)[O-])N1CCN(c2ccccc2)CC1 39.8 µM [inhibitor, partial curve], COc1cc(-c2cc(C(=O)O)c3c(OC)c(OC)c(OC)cc3n2)ccc1O 14.1 µM [inhibitor, partial curve], Cc1c(NC(=O)c2cccc(NC(=O)c3ccco3)c2)cccc1C(=O)O 11.2 µM [inhibitor, single point], Cc1cccc(NC(=O)c2cnc3ccccn3c2=O)c1 20 µM [inhibitor, partial curve], Clc1ccc(CSc2ncn[nH]2)cc1 5.62 µM [inhibitor, single point], Cc1ccc2cc(CCNC(=O)c3ccc(S(=O)(=O)N4CCCCC4)cc3)c(=O)[nH]c2c1 56.2 µM [inhibitor, single point], O=S(=O)(c1ccc(-c2csc(-c3cccnc3)n2)cc1)N1CCCC1 35.5 µM [inhibitor, partial curve, poor fit], O=C(/C=C/c1ccc(-c2ccccc2[N+](=O)[O-])o1)c1ccccc1 28.2 µM [inhibitor, single point], NCCNc1ccc([N+](=O)[O-])c(NC2CC2)c1 35.5 µM [inhibitor, partial curve], O=C(CC1C(=O)NCCN1CC(c1ccccc1)c1ccccc1)NCCc1cn[nH]c1 (stereo unspecified) 31.6 µM [inhibitor, single point], N#Cc1ccccc1OCC(=O)NC(N)=O 35.5 µM [inhibitor, partial curve], CNc1nc(-c2ccccc2)cc(C(F)(F)F)c1C#N 8.91 µM [activator, full curve], C=CCSc1nnc(-c2cc3c(s2)-c2ccccc2CC3)o1 25.1 µM [activator, partial curve], C=CCN1C(=O)/C(=C/c2ccc(O)c(OC)c2)S/C1=N/c1nccs1 20 µM [inhibitor, partial curve, poor fit], N#C/C(=C\c1ccc[nH]1)Sc1nc2ccccc2s1 50.1 µM [inhibitor, single point], CC(=O)N/C(=N\OCc1ccc(Br)cc1)c1nonc1NC(C)=O 10 µM [inhibitor, partial curve], CN(C1CCCCC1)S(=O)(=O)c1cccc(C(=O)OCC(=O)NC2CCCc3ccccc32)c1 (stereo unspecified) 39.8 µM [inhibitor, single point], O=C1COCCOCCOCCOCC(=O)NCCN1 11.2 µM [inhibitor, single point], CCOc1ccccc1N1CCN(S(=O)(=O)c2ccc3c4c(cccc24)C(=O)N3)CC1 31.6 µM [inhibitor, partial curve], COc1ccc(C2=NN(c3ccccc3)C(=O)/C2=C\c2ccc(O)c(OC)c2)cc1 44.7 µM [inhibitor, single point], COc1cc2nc(N3CCN(C(=O)C4COc5ccccc5O4)CC3)nc(N)c2cc1OC (stereo unspecified) 39.8 µM [activator, partial curve], Cc1ccccc1NC(=O)c1sc(Cl)nc1-c1ccccc1 56.2 µM [inhibitor, partial curve, poor fit], CCOc1cccc(=O)c2c(C)n(CC(=O)c3ccccc3)c(C)c12 14.1 µM [inhibitor, partial curve]

Activity change, negative = inhibition, inactive:
COc1cc(C(=S)N2CCN(c3ccccc3Cl)CC2)cc(O)c1O 2.18%, Cc1nnsc1C(=O)NCc1c(F)cccc1Cl -5.04%

Activity change, negative = inhibition, inconclusive:
Cc1ccc(CN(CC(=O)NC(C)(C)C)C(=O)CNC(=O)c2cccs2)cc1 12.3% [activator], CC(C)(C)NC(=O)CSc1nc2ccc(NC(=O)CSc3nnnn3Cc3ccccc3)cc2s1 -19.1% [inhibitor], N#Cc1c2c(c(NCCCN3CCOCC3)n3c1nc1ccccc13)CCC2 15.3% [activator], N#CCCN(Cc1cccnc1)C(=S)NCc1ccco1 -16.5% [inhibitor], COc1cccc(CC2(CO)CCCN(Cc3cc(F)ccc3-n3cccn3)C2)c1 (stereo unspecified) 7.76% [activator], CCc1cccc(NC2c3ccccc3C(=O)N2c2ccc(C)cn2)c1 (stereo unspecified) -17.2% [inhibitor], Cc1[nH]n(-c2ccccc2)c(=O)c1N=O 13.6% [activator], CN(C)CCCNC(=O)c1cc(C(=O)Cc2ccccc2)c[nH]1 16.6% [activator], C/C(CC(=O)NC(C)C)=N\NC(=O)C(c1ccccc1)c1ccccc1 16% [activator], CCC(C)NS(=O)(=O)c1ccc(OCC(=O)Nc2ccc3c(c2)OCO3)cc1 (stereo unspecified) -15.9% [inhibitor], CCN(CC(=O)NCc1cccs1)c1ccc(S(=O)(=O)N2CCCC2)cn1 -16.3% [inhibitor]
